Assay results published in the BET-seq Pho4 binding data (Le et al. 2018).
The other results are listed elsewhere or left out. The energies were worked out here from pooled read counts, against the library average; single values are noisy.

The sequences below were run against T1, Pho4 (S. cerevisiae) (UniProt P07270) (assay: relative binding free energy (BET-seq); higher = weaker binding). Conditions: reference: library average.
T1 sequence: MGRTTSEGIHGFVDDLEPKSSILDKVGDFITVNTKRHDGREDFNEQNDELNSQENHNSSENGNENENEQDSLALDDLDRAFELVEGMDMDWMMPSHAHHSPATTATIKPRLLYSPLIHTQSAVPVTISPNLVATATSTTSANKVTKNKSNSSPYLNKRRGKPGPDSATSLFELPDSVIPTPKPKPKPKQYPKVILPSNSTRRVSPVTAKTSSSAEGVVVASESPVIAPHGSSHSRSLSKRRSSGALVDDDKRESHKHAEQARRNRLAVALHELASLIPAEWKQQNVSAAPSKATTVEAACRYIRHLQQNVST

Sequence	relative binding free energy [kcal/mol]
TAAAACACGTGTTTGA	-0.08
GGGACCACGTGGTGTT	-0.13
TGAGTCACGTGGCAGG	-0.01
AGGAGCACGTGGTAGA	-0.26
TTATGCACGTGTTGGC	0.13
AGCATCACGTGGGGGA	0.02
TCTTGCACGTGATTTA	0.01
CGATGCACGTGCGTGT	0.05
GGGTTCACGTGGGGGC	0.14
CTAAGCACGTGCGGGT	-0.14
TTCCTCACGTGGGTTG	0.05
GGAGGCACGTGTTGTT	-0.07
AGTATCACGTGGGGTG	-0.02
TCTAGCACGTGTGGGT	0.03
GATATCACGTGGGGTG	0
TATAGCACGTGGAGCG	-0.09
GGTCTCACGTGGTTTG	0.15
ATAGGCACGTGAGCTT	0.03
TGTGTCACGTGCGTGA	-0.05
GATGACACGTGCTGGG	0.03
CGGCGCACGTGCTGGG	-0.07
CCGGGCACGTGGGGAT	-0.16
AGTATCACGTGGAATG	0.27

Sequence	relative binding free energy [kcal/mol]
CTCGTCACGTGTTAGG	0
TTAGCCACGTGGATTT	0.03
AGCATCACGTGTTGGA	0.11
AGTAGCACGTGGGCAG	-0.21
GTCGTCACGTGAGGTG	0.28
GGCAGCACGTGTGGGT	0.04
AATGACACGTGGGCGT	-0.15
GTCACCACGTGGTGTG	-0.12
TCTTGCACGTGAGTGA	0.06
GGTATCACGTGTTGCG	0.12
AGATTCACGTGGGTGG	0.25
TTACGCACGTGAGCGG	0.14
TGGGTCACGTGGGTCA	-0.01
TCGGGCACGTGGTCGT	-0.11
TAAAACACGTGGGTGC	0.08
TGGTTCACGTGTGAAA	0.37
TGTCTCACGTGGAGGG	0.09
GGTGACACGTGCTTAG	0.02
GGGGTCACGTGTAAGT	0.35
GCTTGCACGTGATTGG	0.07
TTATTCACGTGCGATA	0.29
TTGTTCACGTGAAACG	0.31
CGTGCCACGTGGGTTG	-0.23

Sequence	relative binding free energy [kcal/mol]
GGTAACACGTGAGAAG	0.36
GCGAACACGTGTGGGT	0.15
AAGGTCACGTGATAGT	0.21
TATGGCACGTGCGTTG	-0.07
AAGTACACGTGGGTAT	-0.03
AGGTTCACGTGAAGCG	0.43
AATATCACGTGGTGTA	-0.01
AGTTTCACGTGAAGTC	0.33
AGGTCCACGTGGAGGT	-0.06
TCGGTCACGTGTTAGT	-0.02
GTGTTCACGTGGGGAC	0.19
GCTTTCACGTGTGGTC	0.4
TGGAGCACGTGAGGTA	0.2
AGTGCCACGTGTGGTG	-0.05
TAATTCACGTGTGGCG	0.31
GTTTTCACGTGAGTAT	0.23
AGTGGCACGTGTTGAG	-0.06
GATTACACGTGCTGTA	0.24
TGTGACACGTGTGGTT	0.1
TGAGGCACGTGATGCT	-0.01
TATTGCACGTGAGGCA	0.27
ACGTTCACGTGGGATG	0.01
ACGTACACGTGAGTGT	0.24

Sequence	relative binding free energy [kcal/mol]
ATGGGCACGTGAGAAG	0.18
GTGGGCACGTGGAGTT	0.08
CTTGGCACGTGGGGAC	-0.24
TTTATCACGTGGTTTT	0.24
TGAGTCACGTGATCTT	0.08
TGCTGCACGTGGGCTG	-0.28
TAGGCCACGTGCTTGG	-0.22
AGGTGCACGTGCTTGA	-0.09
GGTTACACGTGAGGTT	0.26
CTGCTCACGTGGGTGG	0.09
AAGTTCACGTGTAGCG	0.21
TCGTGCACGTGTCTGT	-0.11
AAGAGCACGTGTTGAT	-0.02
AAAGTCACGTGCTGGT	-0.04
GATGGCACGTGGCGTT	-0.05
CTAGTCACGTGATGTT	0.19
CCTTTCACGTGGTGGG	0.33
AGCGCCACGTGCGGGT	-0.14
TTCGTCACGTGAGTTT	0.49
GTAGGCACGTGGGCGT	-0.19
GCGTTCACGTGTTGGA	0.31
GTAAACACGTGGTCGG	-0.05
TTTTGCACGTGAATGA	0.19

Sequence	relative binding free energy [kcal/mol]
AAGGTCACGTGTAGGC	0.09
CATTTCACGTGTGTGA	0.23
TGGCTCACGTGGATAT	0.24
TGATTCACGTGATAGA	0.28
GATGCCACGTGGGTTG	-0.09
TGTGTCACGTGCATGC	-0.1
TTGTTCACGTGACGTC	0.37
TGGCACACGTGTGTAT	-0.03
TGTTTCACGTGGAACT	0.24
AGGTCCACGTGGAGTT	0.05
CAGTGCACGTGTGTAT	-0.13
TGCGTCACGTGGGCGA	0
ATAGGCACGTGTGGCA	-0.1
TGGAGCACGTGATGGA	0.02
AGGGTCACGTGTGATT	0.22
CGGTGCACGTGGGATG	-0.08
ATGGACACGTGCGGTT	0
AAAGGCACGTGATTTA	-0.01
AGTAACACGTGTGTAT	-0.06
TAAGGCACGTGTGTTC	0
CGTGGCACGTGGCGTC	-0.13
GTAAGCACGTGTTTTG	-0.09
TTTGGCACGTGGATAG	-0.13
